The other results are listed elsewhere or left out.
The compounds below were run on T1, C. trachomatis L2/434/Bu expressing GFP (CTL2-GFP). Details: total inclusion area; 28.5 h, 10 µM; inhibitor.
T1 construct: L2/434/Bu GFP intracellular growth in HeLa cells
Design: species or system HeLa; C. trachomatis total inclusion area by high-content imaging, normalised to DMSO
Procedure, shortened: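 Post-fluorescence-read fixation, DNA staining with Hoechst and high-content imaging; GFP inclusion area and number per well, and nuclei counts, used as proxies for bacterial growth and host viability.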

**Q.** With `Cc1cccc(Cn2cnc(NC(=O)COc3ccc([N+](=O)[O-])c(C)c3)n2)c1` [CBK268177] as the compound, how does the “% of control remaining” value read?
**A.** Its value is 108.41.

**Q.** Which “% of control remaining” value does the source give for `CN1CCN(C(=O)Cn2c(-c3cccs3)cc3cccnc32)CC1` [CBK282558] here?
**A.** The value was 111.484.

**Q.** `N#CCCCN1CCC(Oc2nccnc2OCc2ccccc2C(F)(F)F)CC1` [CBK153636] was tested. Which “% of control remaining” value did it give?
**A.** The value was 85.0728.

**Q.** `COc1ccc(CC(=O)N2C3CCC2CC(O)(c2ccco2)C3)cc1` (centres unmarked) [CBK284137] was tested. Which “% of control remaining” value did it give?
**A.** Its value is 84.4886.

**Q.** `CCOc1ccc(CNCCc2ccc(S(N)(=O)=O)cc2)cc1` [CBK268090C] was tested. Which “% of control remaining” value did it give?
**A.** The value was 104.493.

**Q.** For `O=C(CSc1nc(O)c2c(-c3ccccc3)csc2n1)NCCc1ccccc1` [CBK268077], which “% of control remaining” value is on record?
**A.** The value was 100.579.

**Q.** Which “% of control remaining” value does the source give for `Cc1ccc(OCc2nnc(SCc3cccc(C#N)c3)n2N)cc1C` [CBK267420] here?
**A.** The value was 110.566.

**Q.** With `O=C(O)c1[nH]c2ccccc2c1NS(=O)(=O)c1ccc(Br)cc1` [CBK049878] as the compound, how does the “% of control remaining” value read?
**A.** Its value is 75.5204.

**Q.** Which “% of control remaining” value does the source give for `N#C/C(=C\c1cn(-c2ccccc2)nc1-c1ccc(S(=O)(=O)N2CCOCC2)cc1)c1nc2ccccc2c(=O)[nH]1` [CBK266343] here?
**A.** Its value is 133.914.

**Q.** Which “% of control remaining” value does the source give for `CC(Oc1cccc(Cl)c1)C(=O)NN` (centres unmarked) [CBK261207] here?
**A.** The value was 81.7733.

**Q.** With `Cc1nn(C)c(C)c1NC(=O)CSc1nnc(-c2cccc(Br)c2)n1-c1ccccc1` [CBK267430] as the compound, how does the “% of control remaining” value read?
**A.** Its value is 93.5638.

**Q.** Which “% of control remaining” value does the source give for `O=C(Nc1ccc(Cl)cc1)N1CCCC(CO)C1` (centres unmarked) [CBK156047] here?
**A.** The value was 89.7124.

**Q.** How did the “% of control remaining” value turn out when `COc1cc(OC)cc(C(=O)Nc2ccc(S(=O)(=O)Nc3nccs3)cc2)c1` [CBK261300] was run?
**A.** Its value is 96.7472.

**Q.** With `Cn1c(SCCC(=O)O)nnc1-c1ccc2c(c1)OCO2` [CBK269842] as the compound, how does the “% of control remaining” value read?
**A.** The value was 106.491.

**Q.** Which “% of control remaining” value does the source give for `Nc1ncc(-c2cccc(OC(F)(F)F)c2)nc1-c1ccc(F)c(Cl)c1` [CBK064021] here?
**A.** Its value is 104.409.

**Q.** With `CC(=O)N[C@H](C(=O)N1CCC2(C/C=C/C[C@H]3COCC[C@H]3NC(=O)[C@@H](CC(C)C)NC2=O)CC1)[C@@H](C)OC(C)(C)C` [CBK292197] as the compound, how does the “% of control remaining” value read?
**A.** Its value is 97.7441.

**Q.** With `CC(Sc1ccccc1)C(=O)NC(C)(C)C` (centres unmarked) [CBK026610] as the compound, how does the “% of control remaining” value read?
**A.** Its value is 102.275.

**Q.** With `COC(=O)c1ccc(-n2cccn2)c(C#Cc2cccnc2)c1` [CBK284525] as the compound, how does the “% of control remaining” value read?
**A.** Its value is 97.4971.

**Q.** With `O=S(=O)(c1ccccc1)N1CCCC1c1cccs1` (centres unmarked) [CBK057002] as the compound, how does the “% of control remaining” value read?
**A.** The value was 47.2603.

**Q.** How did the “% of control remaining” value turn out when `Cc1ccc(-c2nnc(NCc3cnn(C)c3C)o2)c(C)c1` [CBK306166] was run?
**A.** The value was 89.0103.

**Q.** `CC(=O)N1C[C@@H]2OCC(=O)N(Cc3nccn3C)[C@@H]2C1` [CBK289668] was tested. Which “% of control remaining” value did it give?
**A.** Its value is 125.691.

**Q.** Which “% of control remaining” value does the source give for `OCCN1CCN(C2CCN(Cc3ccccc3Cl)CC2)CC1` [CBK264710] here?
**A.** The value was 96.7254.

**Q.** For `COc1ccc(C(=O)N2CCC3(CCN(C(=O)Cc4c[nH]cn4)C3)C2)cc1OC` (centres unmarked) [CBK131768], which “% of control remaining” value is on record?
**A.** Its value is 110.684.

**Q.** With `CC(C)Cn1c(=O)[nH]c2ncc(-c3ccco3)nc21` [CBK064353] as the compound, how does the “% of control remaining” value read?
**A.** The value was 88.6927.

**Q.** With `O=C(Nc1sc2c(c1C(=O)O)CCCC2)c1cc2ccccc2o1` [CBK264551] as the compound, how does the “% of control remaining” value read?
**A.** The value was 110.03.

**Q.** Which “% of control remaining” value does the source give for `CC(C)NC(=O)[C@@H](C)C1CC[C@@]2(C)CC[C@H](NC(=O)c3cncnc3)[C@@H](C)[C@@H]2[C@H]1O` (some centres unmarked) [CBK289454] here?
**A.** The value was 94.3055.

**Q.** For `CCn1cc(C(=O)N2CCCC2c2nc3ccccc3[nH]2)cn1` (centres unmarked) [CBK283776], which “% of control remaining” value is on record?
**A.** Its value is 97.4141.

**Q.** With `CC(C)CC(NC(=O)c1ccco1)c1nc2cccnc2n1C` (centres unmarked) [CBK283827] as the compound, how does the “% of control remaining” value read?
**A.** The value was 81.481.

**Q.** How did the “% of control remaining” value turn out when `O=C(NCc1ccccn1)C(=O)N/N=C/c1ccccc1[N+](=O)[O-]` [CBK262204] was run?
**A.** The value was 106.054.

**Q.** How did the “% of control remaining” value turn out when `Cc1cn2c3c(=O)n(C)c(=O)n(C)c3nc2n1CCN1CCOCC1` [CBK270139] was run?
**A.** Its value is 111.9.

**Q.** With `O=C(Nc1ccc(Br)cc1C(=O)c1ccccc1)c1ccc([N+](=O)[O-])s1` [CBK066838] as the compound, how does the “% of control remaining” value read?
**A.** The value was 68.2253.

**Q.** Which “% of control remaining” value does the source give for `CC(=O)N1CCc2cc(NCc3nc4ccccc4n3C(C)c3ccccc3)ccc21` (centres unmarked) [CBK285621] here?
**A.** Its value is 93.1397.

**Q.** Which “% of control remaining” value does the source give for `Cc1ccc(S(=O)(=O)N(CC(O)Cn2c3ccc(Cl)cc3c3cc(Cl)ccc32)c2ccccc2)cc1` (centres unmarked) [CBK263353] here?
**A.** Its value is 97.2668.

**Q.** For `COc1ccc(CCNC(=O)N2CCCC(CO)C2)cc1` (centres unmarked) [CBK156059], which “% of control remaining” value is on record?
**A.** The value was 93.9749.

**Q.** How did the “% of control remaining” value turn out when `Cc1ccc2nc(Cn3cc(-c4cnn(Cc5ccccc5)c4)cn3)cn2c1` [CBK297125] was run?
**A.** The value was 85.2253.

**Q.** With `CC1Cc2cc(C(O)CN3CCC(O)(c4ccccc4F)CC3)ccc2N1S(C)(=O)=O` (centres unmarked) [CBK283091] as the compound, how does the “% of control remaining” value read?
**A.** The value was 100.978.

**Q.** For `Nc1cccc(S(=O)(=O)N2CCC(C(=O)O)CC2)c1` [CBK286541], which “% of control remaining” value is on record?
**A.** Its value is 104.236.

**Q.** For `CCCCCOc1ccc(Nc2cc(-c3ccc(N(C)C)cc3)ncn2)cc1` [CBK090889], which “% of control remaining” value is on record?
**A.** The value was 91.0564.

**Q.** How did the “% of control remaining” value turn out when `COc1ccc(CNC(=O)N2CCCCC2CO)cc1OC` (centres unmarked) [CBK155981] was run?
**A.** The value was 93.4754.

**Q.** For `CS(=O)(=O)N1CC2(CCN(Cc3ccc(Cl)c(Cl)c3)CC2)c2ccccc21` [CBK084043], which “% of control remaining” value is on record?
**A.** The value was 80.6827.

**Q.** With `Cc1noc(C)c1S(=O)(=O)Nc1c(C(=O)O)sc2ncccc12` [CBK049988] as the compound, how does the “% of control remaining” value read?
**A.** The value was 85.1367.

**Q.** How did the “% of control remaining” value turn out when `CC(/C(=N/O)c1ccccc1)C(O)c1ccccn1` (centres unmarked) [CBK022993] was run?
**A.** Its value is 41.0584.

**Q.** Which “% of control remaining” value does the source give for `CC1(Cc2ccn[nH]2)SCCCS1` [CBK019308C] here?
**A.** Its value is 44.0093.

**Q.** With `CCCc1csc(C2CN3CCCC3CO2)n1` (centres unmarked) [CBK304799] as the compound, how does the “% of control remaining” value read?
**A.** The value was 91.0155.

**Q.** Which “% of control remaining” value does the source give for `COc1ccc([C@@]23CCC(NC(=O)Nc4ccccc4OC(F)F)C[C@@H]2N(C)CC3)cc1OC` (some centres unmarked) [CBK047547T] here?
**A.** The value was 86.9605.

**Q.** Which “% of control remaining” value does the source give for `COc1ccc2c(c1)CCCN2C(=O)Cn1nc(C)cc1C` [CBK282042] here?
**A.** Its value is 94.9796.

**Q.** `COCC(=O)N1CCC(Oc2ccc3ncccc3c2)(C(=O)O)CC1` [CBK307340] was tested. Which “% of control remaining” value did it give?
**A.** The value was 72.7248.

**Q.** `CCC1(CC)OC(NC[C@@H](C)c2ccccc2)=NC1=O` [CBK123983] was tested. Which “% of control remaining” value did it give?
**A.** Its value is 76.227.

**Q.** For `CC(C)(C)c1ccc(-c2cnc3ncccc3c2O)cc1` [CBK089628], which “% of control remaining” value is on record?
**A.** Its value is 89.4741.

**Q.** For `CCN(CC)C(=O)c1ccc(-c2ccc(NC(C)=O)cc2)nc1` [CBK158850], which “% of control remaining” value is on record?
**A.** Its value is 110.296.

— article PMC12040169 (PLOS Biology, 2025)
